We go through 55 compounds from PMC4336329 (PLoS ONE, 2015).

Structures are written as SMILES. Among all 310,000 compounds or so, about 2,200 (0.71%) showed an effect of 50% or more. The effect is printed as a negative number. The list shows a part of the results.

This test deals with human ether-à-go-go-related gene (hERG) potassium channel (human, UniProt Q12809). The test is described as follows: primary screen, population patch clamp on CHO cells stably expressing hERG.
Sequence of human ether-à-go-go-related gene (hERG) potassium channel (Q12809 whole entry, looked up): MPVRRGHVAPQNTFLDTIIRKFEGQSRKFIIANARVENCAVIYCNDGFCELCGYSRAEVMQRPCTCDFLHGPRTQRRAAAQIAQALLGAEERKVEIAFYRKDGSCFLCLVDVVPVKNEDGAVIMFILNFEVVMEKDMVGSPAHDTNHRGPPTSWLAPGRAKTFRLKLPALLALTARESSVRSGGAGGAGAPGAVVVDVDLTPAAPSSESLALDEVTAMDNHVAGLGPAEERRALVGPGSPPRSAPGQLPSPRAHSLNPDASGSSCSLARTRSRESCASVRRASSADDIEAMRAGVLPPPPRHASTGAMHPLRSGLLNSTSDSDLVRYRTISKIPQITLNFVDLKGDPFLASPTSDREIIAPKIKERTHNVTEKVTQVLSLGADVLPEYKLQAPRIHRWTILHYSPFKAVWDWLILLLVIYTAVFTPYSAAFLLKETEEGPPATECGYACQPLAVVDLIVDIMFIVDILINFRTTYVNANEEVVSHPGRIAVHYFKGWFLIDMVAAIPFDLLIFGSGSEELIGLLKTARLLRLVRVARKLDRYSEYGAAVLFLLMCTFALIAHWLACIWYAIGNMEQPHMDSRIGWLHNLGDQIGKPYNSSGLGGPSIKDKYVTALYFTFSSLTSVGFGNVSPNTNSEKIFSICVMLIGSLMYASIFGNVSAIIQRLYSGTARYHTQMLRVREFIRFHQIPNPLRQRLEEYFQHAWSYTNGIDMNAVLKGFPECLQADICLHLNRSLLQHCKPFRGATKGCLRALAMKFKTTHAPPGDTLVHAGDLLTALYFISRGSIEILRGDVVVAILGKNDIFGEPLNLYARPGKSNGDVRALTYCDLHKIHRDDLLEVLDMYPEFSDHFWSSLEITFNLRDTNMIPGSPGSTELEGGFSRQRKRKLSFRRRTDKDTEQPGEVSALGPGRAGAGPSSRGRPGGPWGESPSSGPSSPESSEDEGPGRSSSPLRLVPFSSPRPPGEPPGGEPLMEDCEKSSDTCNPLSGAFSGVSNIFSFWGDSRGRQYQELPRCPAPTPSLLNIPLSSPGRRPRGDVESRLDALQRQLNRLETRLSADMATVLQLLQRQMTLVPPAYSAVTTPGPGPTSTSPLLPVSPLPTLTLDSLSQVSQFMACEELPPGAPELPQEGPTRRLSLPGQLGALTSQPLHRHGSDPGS
For `O=C(O)c1ccc(CN2C(=O)c3ccccc3S2(=O)=O)cc1`, the “hERG current change (%, negative = inhibition) at 1uM” value is 8.66%.
The result for `Cc1ccc(N=Cc2c(O)n(-c3cc(Cl)ccc3N3CCOCC3)c(=O)c3ccccc23)cc1C` reads 5.4%; that for `Cn1c(SCC(=O)c2ccccc2)nnc1-c1cccs1`, 4.07%.
The figure for `O=C(COc1ccc2ccc(=O)oc2c1)N1CCc2ccccc21` is 5.43%.
As to `O=c1c2cc(Br)ccc2nc(-c2ccc([N+](=O)[O-])cc2)n1O`, the “hERG current change (%, negative = inhibition) at 1uM” value is reported as 19.9%.
The figure for `C=CCn1c(COc2ccccc2)nnc1SCC(=O)N/N=C/c1ccc(C)cc1` is -2.01%; for `Cc1ccc([N+](=O)[O-])c(OCCN2CCc3ccccc3C2)c1.O=C(O)C(=O)O` it is 8.56%; for `CC(C)c1ccc(OCC(=O)Nc2ccncc2)cc1` it is 10.7%.
The figure for `c1ccc2c(c1)sc1nnnn12` is -0.501%; for `C/C(=N\NS(=O)(=O)c1ccc(Cl)c([N+](=O)[O-])c1)c1ccc(C)o1` it is 11.1%.
Take `CCOC(=O)c1c(C)[nH]c(C)c1C(=O)CSc1nc2ccccc2c(=O)n1-c1ccccc1C`: the “hERG current change (%, negative = inhibition) at 1uM” value was 6.67%.
The figure for `CC1(C)CC(=O)C(C(N)=NC(=O)c2ccccc2)=C(O)C1` is 11.5%; for `CC(=O)Nc1ccc(CN2CCC(CO)(CCOc3ccccc3)CC2)cc1` it is -43.8%.
The result for `CCOC(=O)N1CCN(C(=O)CSC2=NS(=O)(=O)c3cc(Cl)ccc3N2)CC1` reads 14.8%; that for `CN(Cc1ccccc1)Cc1nc2c([nH]1)c(=O)n(C)c(=O)n2C`, 0.239%.
The result for `CCOC(=O)N1CCN(C(=O)c2ccccc2NC(C)=O)CC1` reads 12.8%; that for `COc1cccc(C(=O)Nc2ccc(N(C)C)cc2)c1OC`, 15.3%.
As for `COc1cc(C(C(=O)NC2CCCCC2)N(Cc2ccco2)C(=O)c2cnccn2)cc(OC)c1OC` (stereo not shown), the “hERG current change (%, negative = inhibition) at 1uM” value is 9.86%.
For the compound `CCCc1nc2ccccc2c(=O)n1CC(=O)c1ccccc1`, the “hERG current change (%, negative = inhibition) at 1uM” value was 4.93%.
Consider `Cc1nnc(SCC(=O)NC(C)(C)C)n1NCc1c(F)cccc1Cl`, for which the “hERG current change (%, negative = inhibition) at 1uM” value is 13%.
The figure for `Cc1ccc(C(=O)Nc2ccccc2C(=O)N2CCCCCC2)cc1` is 12%; for `O=[N+]([O-])c1cccc(/C=N/Nc2nc(C(Cl)(Cl)Cl)nc3ccccc23)c1` it is 7.48%.
As for `O=C(OC1CCCCC1=O)c1ccc(S(=O)(=O)Nc2ccccc2)cc1` (stereo not shown), the “hERG current change (%, negative = inhibition) at 1uM” value was 10%.
Regarding `O=C(Cc1ccc(F)cc1)Nc1ccccc1Sc1ccccc1`, the “hERG current change (%, negative = inhibition) at 1uM” value is 3.43%.
The result for `CCOC(=O)Cc1c(Sc2ccccc2)c2cc(C)ccc2n1C` reads 0.574%; that for `O=C(CC1Oc2ccccc2NC1=O)NCCCN1CCN(C2CCCCC2)CC1` (stereo not shown), 10.1%; that for `COc1ccc(CCN(C)C(=O)c2cncc(Br)c2)cc1OC`, 18.6%.
The result for `CC(C)Oc1ccc(CNC(=S)N/N=C/c2cccnc2)cc1` reads 6.38%; that for `COC(=O)C(C)Sc1nnc(Cc2cc(=O)[nH]c(=O)[nH]2)n1-c1ccc(OC)cc1` (stereo not shown), -0.46%.
In the case of `O=C(Nc1cccc([N+](=O)[O-])c1)C12CC3CC(C1)CC(n1cnc([N+](=O)[O-])n1)(C3)C2`, the “hERG current change (%, negative = inhibition) at 1uM” value is recorded as -18.7%.
The result for `COc1ccc(Cl)cc1NC(=O)CN(C)C(=O)CCCc1c[nH]c2ccccc12` reads 7.41%.
The figure for `Cc1cccc(NCc2ccccc2O)c1C` is -6.78%; for `COc1cc2nc(CN3CCC(C(O)(c4ccccc4)c4ccccc4)CC3)[nH]c(=O)c2cc1OC` it is 4.62%.
The figure for `Cc1c(C(=O)Nc2ccccc2)cnn1-c1ccccc1` is 6.8%.
Consider `Cc1cc(C)c(S(=O)(=O)n2nc(C)c(Br)c2C)c(C)c1`, for which the “hERG current change (%, negative = inhibition) at 1uM” value turned out to be 3.15%.
The result for `CN(C)C(CNC(=O)c1ccc([N+](=O)[O-])cc1Cl)c1ccco1` (stereo not shown) reads 15.7%; that for `O=C(N/N=C/c1coc2ccccc2c1=O)c1ccccc1`, 14.7%; that for `O=C1COc2ccc(C(=O)COc3ccc([N+](=O)[O-])cc3)cc2N1`, 8.56%.
The result for `COc1ccc(C(=O)C2CCCN(CCO)C2)c(C)c1` (stereo not shown) reads 12.5%; that for `NC(CSCc1ccccc1Cl)C(=O)O` (stereo not shown), 0.471%.
The result for `COc1ccccc1Cn1c(C)nc2ccccc21` reads 14%.
Regarding `O=C(COc1ccc(Br)cc1CO)Nc1ccccc1`, the “hERG current change (%, negative = inhibition) at 1uM” value came out at 7.6%.
On to `CN(C)S(=O)(=O)c1cccc(NC(=O)CN2C(=O)NC(Cc3c[nH]c4ccccc34)C2=O)c1` (stereo not shown), for which the “hERG current change (%, negative = inhibition) at 1uM” value is 15.5%.
As for `CC(C)c1ccc(NC(=O)CN2CCN(c3ccccn3)CC2)cc1`, the “hERG current change (%, negative = inhibition) at 1uM” value is 3.18%.
The result for `CC(C)(C)C(=O)CN1C(=O)NC2(CCCc3ccccc32)C1=O` (stereo not shown) reads 11.2%; that for `O=C1N[C@@H](Cc2ccccc2)C(=O)N2[C@H]1C[C@]1([C@]34C[C@H]5C(=O)N[C@@H](Cc6ccccc6)C(=O)N5[C@H]3N(S(=O)(=O)c3ccccc3)c3ccccc34)c3ccccc3N(S(=O)(=O)c3ccccc3)[C@H]21`, 17.4%; that for `CSc1nc(Sc2ccccc2Cl)c2ccccc2n1`, 15.7%.
The figure for `CC1Cc2ccccc2N1S(=O)(=O)c1cnc(Cl)c(Cl)c1` (stereo not shown) is 4.04%; for `CC(C)(C)c1cc(Cc2ccccc2)[nH]n1` it is 11.6%.
The result for `COc1ccccc1CNCc1cccc(Oc2ccccc2)c1` reads 7.52%; that for `COc1ccccc1NC(=O)CCCN1C(=O)C(c2ccccc2)Oc2cccnc21` (stereo not shown), 6.76%.
Regarding `CC(=O)Nc1ccc(NC(=O)C2C3CCC(C3)C2C(=O)O)cc1` (stereo not shown), the “hERG current change (%, negative = inhibition) at 1uM” value was 15.3%.
The result for `CC[N+](CC)(CC)CCCOC(=O)C(O)(c1ccccc1)C1CCCCC1.[Cl-]` (stereo not shown) reads 6.29%; that for `CCCC(=O)Nc1c(C)nn(C(=O)CCC)c1C`, 7.41%; that for `CCOc1ccc(NS(=O)(=O)c2ccc(C(=O)NCCCN3CCCC3=O)cc2)cc1`, 5.72%.
